Results as given in the supplement of paper PMC7826260.
The other results are listed elsewhere or left out. One pool of 16,384 single-stranded DNAs met each Rep nickase domain in vitro (1 h at 37 °C, 3 µM enzyme); the outer parts of the 90-letter strands are left off. Numbers give uncut DNA relative to the enzyme-free pool, as log2; strong cutting gives strongly negative numbers. There is no active / inactive call. Reads are scaled to the total; values above 0 arise when much of the pool is cut.

Columns and labels:
Assay in all cases: uncleaved DNA left, log2 of reads against the no-enzyme library (log2 ratio); higher = less cleavage (more negative = more Rep cleavage of the k-mer); sequences stand for … in CTCGTCCG…ACCGGAGA
[1] = test system: T1, Rep nickase domain of Muscovy duck circovirus
T1 sequence (residues 1-111, tag not shown): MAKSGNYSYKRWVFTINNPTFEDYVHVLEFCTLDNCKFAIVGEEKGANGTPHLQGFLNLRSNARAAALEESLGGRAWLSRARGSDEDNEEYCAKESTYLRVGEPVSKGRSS
Description: (§1)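 A pool of 90-nt single-stranded DNAs with seven random bases just before the constant AC of the nick site (name = the seven bases) was cut by 3 µM recombinant His6-SUMO-tagged Rep nickase domain (300 nM DNA, 50 mM HEPES pH 8.0, 50 mM NaCl, 1 mM MnCl2, 1 h, 37 °C, three replicates). Uncut DNA was amplified and sequenced.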

[2] = test system: T2, Rep nickase domain of banana bunchy top virus
T2 sequence (residues 1-94, tag not shown): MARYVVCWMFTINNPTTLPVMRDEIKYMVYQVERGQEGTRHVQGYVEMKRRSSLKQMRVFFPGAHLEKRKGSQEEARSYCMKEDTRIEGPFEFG
Description: as §1

[3] = test system: T3, Rep nickase domain of cabbage leaf curl virus
T3 sequence (residues 1-116, tag not shown): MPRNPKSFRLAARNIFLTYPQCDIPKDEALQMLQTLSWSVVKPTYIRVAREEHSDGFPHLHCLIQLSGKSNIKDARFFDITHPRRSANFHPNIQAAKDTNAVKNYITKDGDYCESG
Description: as §1

[4] = test system: T4, Rep nickase domain of chickpea chlorotic dwarf virus
T4 sequence (residues 1-124, tag not shown): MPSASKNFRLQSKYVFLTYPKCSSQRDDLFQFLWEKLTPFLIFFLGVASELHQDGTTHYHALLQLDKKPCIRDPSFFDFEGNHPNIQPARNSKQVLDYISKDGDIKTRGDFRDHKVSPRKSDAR
Description: as §1

[5] = test system: T5, Rep nickase domain of faba bean necrotic yellows virus
T5 sequence (residues 1-98, tag not shown): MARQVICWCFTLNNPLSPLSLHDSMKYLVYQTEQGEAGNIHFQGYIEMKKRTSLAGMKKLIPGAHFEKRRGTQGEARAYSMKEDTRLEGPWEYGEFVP
Description: as §1

[6] = test system: T6, Rep nickase domain of maize striate mosaic virus
T6 sequence (residues 1-117, tag not shown): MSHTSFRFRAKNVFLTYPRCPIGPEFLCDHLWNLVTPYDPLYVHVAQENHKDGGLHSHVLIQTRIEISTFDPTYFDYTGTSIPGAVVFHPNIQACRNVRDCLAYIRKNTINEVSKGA
Description: as §1

[7] = test system: T7, Rep nickase domain of porcine circovirus 2
T7 sequence (residues 2-116, tag not shown): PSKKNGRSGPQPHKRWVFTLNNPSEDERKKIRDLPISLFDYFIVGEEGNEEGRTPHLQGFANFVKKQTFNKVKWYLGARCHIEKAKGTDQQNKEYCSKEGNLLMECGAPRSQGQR
Description: as §1

[8] = test system: T8, Rep nickase domain of tomato yellow leaf curl virus
T8 sequence (residues 1-136, tag not shown): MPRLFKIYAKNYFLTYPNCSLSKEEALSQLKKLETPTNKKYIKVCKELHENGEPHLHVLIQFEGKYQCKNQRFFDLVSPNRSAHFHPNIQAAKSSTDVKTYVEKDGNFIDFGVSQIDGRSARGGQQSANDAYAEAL
Description: as §1

[9] = test system: T9, Rep nickase domain of wheat dwarf virus
T9 sequence (residues 1-137, tag not shown): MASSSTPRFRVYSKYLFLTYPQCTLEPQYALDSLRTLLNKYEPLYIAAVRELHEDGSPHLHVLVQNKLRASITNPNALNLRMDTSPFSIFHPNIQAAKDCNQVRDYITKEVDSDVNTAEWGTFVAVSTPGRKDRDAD
Description: as §1

Sequence	uncleaved DNA left (log2) [1]	uncleaved DNA left (log2) [2]	uncleaved DNA left (log2) [3]	uncleaved DNA left (log2) [4]	uncleaved DNA left (log2) [5]	uncleaved DNA left (log2) [6]	uncleaved DNA left (log2) [7]	uncleaved DNA left (log2) [8]	uncleaved DNA left (log2) [9]
CGGACAA	-0.0458	0.0625	0.872	2.01	0.0936	2.22	0.239	0.045	0.141
TAGGCTA	-0.0302	0.016	0.194	-0.702	-0.0511	0.67	-0.313	0.0337	-0.00054
CCACAGC	0.0711	0.0831	-0.387	-0.521	-0.0747	-1.06	0.201	-0.099	0.0524
GCCGCTC	0.161	-0.0746	0.104	0.333	0.0923	-0.0127	0.0325	0.007	0.00188
TTAGATG	0.0792	0.00572	0.165	0.533	-0.0337	0.592	0.213	-0.0138	0.00278
AGGTTCG	0.109	0.00961	-0.678	-0.238	-0.0188	-0.758	0.198	0.146	0.0577
TATCTAG	-0.0099	-0.0413	-0.779	-0.81	0.0691	-1.16	0.117	-0.0244	-0.127
GTCTCCA	-0.037	-0.00545	0.22	0.676	-0.00772	1.69	0.123	0.0172	0.0089
GCGTTGA	-0.0378	-0.135	-0.104	0.348	-0.123	-0.156	-0.0587	-0.0567	-0.0709
GCTTGAT	0.0245	-0.0912	0.154	0.512	0.0946	0.495	-0.84	0.0622	0.0255
GAGACTA	0.0499	0.112	0.643	1.85	0.00149	2.13	0.243	0.0968	0.243
TCGTTAA	0.0498	-0.0117	-0.0906	-0.189	0.014	-0.428	-0.198	-0.166	-0.0716
CCAGAGG	0.141	-0.108	0.263	0.964	0.0406	0.263	0.15	0.00837	0.0489
AGCGTTA	-0.0499	0.0512	-0.071	-0.0201	0.0275	0.652	-1.01	0.0667	0.0381
TCCATTC	-0.209	-0.0927	-0.284	-0.496	-0.206	-1.31	-0.0935	0.0779	-0.138
ACCCCGT	0.00636	-0.0288	-0.505	-0.816	-0.0897	-1.09	-0.0714	-0.16	-0.189
AATAAGC	0.0979	0.00403	0.025	-0.402	0.115	-1.04	0.215	0.069	0.0439
CTTTCGC	-0.00716	-0.134	-0.695	-0.865	-0.000339	-1.26	0.0611	-0.121	-0.202
TTTGACA	0.0769	0.0595	0.229	-0.824	0.0918	0.16	0.145	0.152	0.0645
ATGTTAG	0.0192	-0.0617	-0.788	-0.408	0.014	-1.06	0.0534	-0.0562	-0.0855
GAAAGAG	0.134	0.0784	-0.234	-0.124	0.116	-0.681	0.249	0.118	0.0882
CTGTTTT	-2.7	-0.928	0.0414	-2.07	-0.678	-0.413	-3.12	-0.215	-0.126

Sequence	uncleaved DNA left (log2) [1]	uncleaved DNA left (log2) [2]	uncleaved DNA left (log2) [3]	uncleaved DNA left (log2) [4]	uncleaved DNA left (log2) [5]	uncleaved DNA left (log2) [6]	uncleaved DNA left (log2) [7]	uncleaved DNA left (log2) [8]	uncleaved DNA left (log2) [9]
TAAGGAC	0.0738	0.0809	0.382	1.22	0.00182	1.16	0.107	0.068	0.149
TACAGCG	0.00245	-0.0387	-0.681	0.557	0.014	-0.318	0.0639	-0.0773	-0.0869
TTATGGC	0.101	0.0401	-0.114	-0.361	0.121	-0.932	-0.0277	0.113	-0.00273
CGAGTTC	0.0486	0.00301	0.17	-0.228	0.00419	-0.308	0.0532	-0.14	0.00191
CGATTTC	0.0528	0.0752	-0.0329	-0.121	0.0927	-0.593	-0.0235	0.0878	-0.011
CTGCTCT	-0.0386	0.0188	-0.206	-1.73	-0.0481	-0.588	-0.116	-0.047	-0.00365
TCCGAAA	0.0518	-0.143	0.132	0.425	0.0833	0.145	0.0977	-0.0911	-0.0135
TACTTTA	-0.996	-0.178	-0.21	-2.57	-0.0498	-0.42	-2.76	0.0795	-0.00971
ATCATCG	0.0365	0.00541	-0.786	0.198	0.0307	-0.697	0.19	0.0609	-0.142
GGGCAAG	0.0693	0.139	0.716	1.97	0.00702	2.07	0.204	0.0559	0.137
AACCCTG	0.0885	0.0842	0.248	0.843	0.0916	1.06	-0.0974	0.0137	0.102
CCCGAGT	-0.0678	-0.23	0.48	0.535	-0.131	-0.176	-0.185	-0.13	-0.0946
CTCCGGC	-0.0552	0.00805	-0.00491	0.121	0.0304	0.0357	-0.04	-0.0716	-0.0419
CACTGTT	-3.23	-3.02	-1.98	-3	-0.605	0.147	-3.63	0.0225	-0.243
CTGCTTC	0.0268	0.0404	0.104	-0.387	0.0791	-0.707	-0.0578	0.0951	-0.137
ATCTCAA	-0.0463	-0.0226	-0.116	-0.233	-0.0931	-0.465	-0.0396	-0.0144	0.0476
AGACCAC	0.0154	0.0414	0.342	0.331	0.123	1.52	0.0151	0.1	0.055
CATTCCA	-0.503	-0.846	-0.0458	-1.9	0.08	-0.378	-0.7	0.139	0.0203
TGACTGC	0.039	-0.14	0.00313	0.528	-0.168	1.32	-0.142	-0.166	0.00318
AATTTCG	0.0657	0.0112	-0.911	-0.00646	0.0707	-1.02	0.052	0.155	0.0625
GAGAAAG	0.227	0.0861	-0.235	0.0596	0.00394	-0.588	0.234	0.118	0.103
GGCTGTA	0.151	0.0378	0.404	1.03	-0.0555	1.7	0.149	0.114	0.135

Sequence	uncleaved DNA left (log2) [1]	uncleaved DNA left (log2) [2]	uncleaved DNA left (log2) [3]	uncleaved DNA left (log2) [4]	uncleaved DNA left (log2) [5]	uncleaved DNA left (log2) [6]	uncleaved DNA left (log2) [7]	uncleaved DNA left (log2) [8]	uncleaved DNA left (log2) [9]
TGATTTT	-3.55	-0.109	-0.31	-2.4	0.0628	-0.244	-3.59	0.122	-0.917
AATGAAC	0.161	0.111	0.137	0.52	0.2	0.806	0.328	0.11	0.154
ACGTTCG	-0.0536	0.018	-0.614	-0.0865	0.119	-0.841	0.119	0.0841	-0.0389
TGGGCTT	-0.0177	-0.00382	0.799	1.76	0.147	2.14	0.306	-0.0309	0.14
CAATCCG	-0.0551	-0.0747	-0.875	-0.0238	-0.0712	-0.8	0.127	-0.118	-0.0329
GGGGACA	-0.0781	0.0958	0.867	2.07	-0.0693	2.27	0.108	-0.0627	0.117
GCCTACT	-2.4	-0.178	-0.208	-2.06	-0.147	-0.0616	-2.64	-0.127	-0.0712
CCACCCA	-0.204	-0.0369	-0.0919	-1.18	-0.0992	-0.64	-0.73	-0.0403	-0.111
AATTGAT	-3.03	-1.54	0.036	0.736	-0.00994	1	-3.45	-0.0245	0.0173
GGCAGTG	0.0178	0.0825	-0.143	0.283	-0.0332	0.319	0.144	0.008	-0.0344
CACCTCC	-0.097	-0.0357	-0.000863	-0.223	-0.148	0.524	-0.102	-0.0156	-0.0092
GTCCAAG	0.0582	0.242	0.268	0.612	-0.00423	0.63	0.227	0.129	0.124
GAGCGCA	0.143	0.22	0.0641	0.657	0.16	1.15	0.176	0.18	0.102
ATGGGGG	0.0101	-0.14	-0.13	0.0446	-0.00614	-0.441	0.109	-0.125	-0.235
CGCCCGT	-0.0136	0.0277	-0.138	-0.262	0.00103	-0.362	0.0478	0.0526	0.0101
TGTGGGG	0.0636	-0.0147	0.158	0.216	0.00801	-0.141	0.181	-0.0524	-0.00565
CGTTTCG	-0.0239	-0.000616	-0.67	0.227	-0.0103	-0.869	0.139	0.0361	-0.0671
TTACCAT	-0.0493	0.0924	0.0132	-2.25	0.0206	-0.137	-1.15	0.125	0.113
TATCCCA	-0.0487	-0.0363	0.0606	-2.31	-0.0654	-0.236	-0.988	-0.0661	-0.0124
AAAACCT	-0.182	-0.0736	-1.94	-2.8	-0.0416	-0.736	-1.6	-0.0689	-0.506
